Measured values taken from the supplement of paper PMC7826260.
The other results are listed elsewhere or left out. Viral Rep nickase domains cut single-stranded DNA in vitro for 1 h at 37 °C with 3 µM enzyme; only the middle of the 90-letter strands is printed. Values are log2 of uncut reads against the no-enzyme pool; more negative means more cut, near 0 not cut, and no call is made. Reads are scaled to the total; values above 0 arise when much of the pool is cut.

Columns and labels:
Assay in all cases: uncleaved DNA left, log2 of reads against the no-enzyme library (log2 ratio); higher = less cleavage (more negative = more Rep cleavage of the k-mer); sequences stand for … in CTCGTCCG…ACCGGAGA
[1] = system: T1, Rep nickase domain of Muscovy duck circovirus
T1 sequence (residues 1-111 of Rep, tag left off): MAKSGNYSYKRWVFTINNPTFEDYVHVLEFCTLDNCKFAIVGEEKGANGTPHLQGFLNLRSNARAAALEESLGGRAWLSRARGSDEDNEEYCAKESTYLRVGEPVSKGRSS
Description: (§1)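 A pool of 90-nt single-stranded DNAs with seven random bases just before the constant AC of the nick site (name = the seven bases) was cut by 3 µM recombinant His6-SUMO-tagged Rep nickase domain (300 nM DNA, 50 mM HEPES pH 8.0, 50 mM NaCl, 1 mM MnCl2, 1 h, 37 °C, three replicates). Uncut DNA was amplified and sequenced.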

[2] = system: T2, Rep nickase domain of banana bunchy top virus
T2 sequence (residues 1-94 of Rep, tag left off): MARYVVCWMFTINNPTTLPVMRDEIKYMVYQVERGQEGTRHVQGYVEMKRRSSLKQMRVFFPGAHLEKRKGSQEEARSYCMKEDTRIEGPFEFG
Description: as §1

[3] = system: T3, Rep nickase domain of cabbage leaf curl virus
T3 sequence (residues 1-116 of Rep, tag left off): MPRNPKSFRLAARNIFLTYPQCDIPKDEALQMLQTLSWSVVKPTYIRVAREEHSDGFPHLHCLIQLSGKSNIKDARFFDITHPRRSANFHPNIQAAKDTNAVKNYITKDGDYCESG
Description: as §1

[4] = system: T4, Rep nickase domain of chickpea chlorotic dwarf virus
T4 sequence (residues 1-124 of Rep, tag left off): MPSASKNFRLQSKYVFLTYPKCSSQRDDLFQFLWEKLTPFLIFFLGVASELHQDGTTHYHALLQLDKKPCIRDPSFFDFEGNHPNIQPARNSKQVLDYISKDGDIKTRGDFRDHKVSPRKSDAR
Description: as §1

[5] = system: T5, Rep nickase domain of faba bean necrotic yellows virus
T5 sequence (residues 1-98 of Rep, tag left off): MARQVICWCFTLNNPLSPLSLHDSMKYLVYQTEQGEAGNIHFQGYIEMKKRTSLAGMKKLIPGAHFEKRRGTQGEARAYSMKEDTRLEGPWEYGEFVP
Description: as §1

[6] = system: T6, Rep nickase domain of maize striate mosaic virus
T6 sequence (residues 1-117 of Rep, tag left off): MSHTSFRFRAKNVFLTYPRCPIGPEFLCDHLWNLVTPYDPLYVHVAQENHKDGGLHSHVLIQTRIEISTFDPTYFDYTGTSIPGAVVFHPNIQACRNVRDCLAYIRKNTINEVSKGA
Description: as §1

[7] = system: T7, Rep nickase domain of porcine circovirus 2
T7 sequence (residues 2-116 of Rep, tag left off): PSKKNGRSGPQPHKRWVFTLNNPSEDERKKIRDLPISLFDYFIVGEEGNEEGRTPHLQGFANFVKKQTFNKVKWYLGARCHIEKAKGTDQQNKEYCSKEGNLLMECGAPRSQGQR
Description: as §1

[8] = system: T8, Rep nickase domain of tomato yellow leaf curl virus
T8 sequence (residues 1-136 of Rep, tag left off): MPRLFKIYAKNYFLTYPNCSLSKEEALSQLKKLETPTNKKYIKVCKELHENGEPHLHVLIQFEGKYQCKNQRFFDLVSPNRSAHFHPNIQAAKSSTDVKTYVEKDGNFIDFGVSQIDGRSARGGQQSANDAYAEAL
Description: as §1

[9] = system: T9, Rep nickase domain of wheat dwarf virus
T9 sequence (residues 1-137 of Rep, tag left off): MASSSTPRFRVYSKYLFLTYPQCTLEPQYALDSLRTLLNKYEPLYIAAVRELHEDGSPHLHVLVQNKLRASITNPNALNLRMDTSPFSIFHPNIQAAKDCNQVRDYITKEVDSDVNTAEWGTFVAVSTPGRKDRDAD
Description: as §1

Sequence | uncleaved DNA left (log2) [1] | uncleaved DNA left (log2) [2] | uncleaved DNA left (log2) [3] | uncleaved DNA left (log2) [4] | uncleaved DNA left (log2) [5] | uncleaved DNA left (log2) [6] | uncleaved DNA left (log2) [7] | uncleaved DNA left (log2) [8] | uncleaved DNA left (log2) [9]
GGATAGC | 0.125 | 0.0713 | 0.702 | 1.61 | 0.0528 | 1.82 | 0.257 | 0.0232 | 0.147
ACTTCCA | -0.103 | -0.000962 | -0.202 | -1.29 | 0.0162 | -0.75 | -0.207 | -0.105 | -0.143
GAAAAAT | -0.0486 | 0.0194 | -0.217 | -1.52 | 0.0959 | 1.05 | -0.144 | 0.0215 | 0.00906
CGAATTC | 0.0165 | -0.00331 | 0.0125 | -0.092 | -0.0108 | -0.64 | 0.102 | 0.0658 | 0.0149
TGTGTGA | 0.111 | 0.078 | 0.0737 | 0.125 | 0.0784 | -0.191 | 0.123 | 0.097 | 0.0808
TTATCGT | -0.143 | 0.0495 | -0.47 | -0.901 | 0.0397 | -1.02 | -0.152 | 0.151 | -0.0107
GGCGTAC | 0.0178 | -0.0452 | 0.395 | 1.06 | 0.0487 | 1.56 | 0.0886 | -0.01 | 0.0945
TCAGGGA | 0.168 | 0.0978 | 0.269 | 0.983 | 0.0932 | 1.03 | 0.114 | 0.0372 | 0.154
ATTAGTT | -0.45 | -0.263 | -0.231 | -2.14 | 0.114 | -0.591 | -2.54 | -0.0794 | -0.15
CGAACGA | -0.0691 | -0.00931 | -0.134 | -0.103 | -0.0646 | -0.468 | 0.0177 | -0.137 | -0.0586
CGAACAC | -0.00258 | -0.0728 | 0.0853 | -0.164 | 0.115 | -0.194 | -0.0417 | 0.0211 | 0.133
CTTAATT | -0.00194 | -0.000169 | -0.116 | -2.54 | -0.206 | -0.882 | -1.34 | 0.0292 | 0.00735
ACGGTGA | -0.0173 | -0.029 | -0.309 | -0.418 | -0.105 | -0.671 | -0.0174 | -0.0965 | -0.175
ACAAGTT | 0.0678 | 3.74e-05 | -0.603 | -2.36 | -0.0623 | -0.806 | 0.0323 | 0.0285 | -0.071
GCATAAC | 0.0913 | 0.156 | -0.122 | -0.553 | 0.0626 | -0.378 | 0.183 | -0.00152 | 0.0154
CACTTAA | -0.206 | -0.12 | -0.205 | -1.07 | -0.00865 | -1 | -1.69 | -0.174 | -0.0975

Sequence | uncleaved DNA left (log2) [1] | uncleaved DNA left (log2) [2] | uncleaved DNA left (log2) [3] | uncleaved DNA left (log2) [4] | uncleaved DNA left (log2) [5] | uncleaved DNA left (log2) [6] | uncleaved DNA left (log2) [7] | uncleaved DNA left (log2) [8] | uncleaved DNA left (log2) [9]
GCCACGT | 0.0489 | 0.0515 | 0.303 | 0.431 | 0.0576 | 0.0761 | 0.188 | 0.00995 | 0.0978
ACGGGGC | 0.0128 | -0.0842 | 0.518 | 0.759 | -0.115 | 0.957 | 0.0944 | -0.157 | -0.0158
TTTCATG | -0.0319 | -0.166 | -0.566 | -0.898 | -0.0377 | -1.21 | 0.0294 | -0.107 | -0.186
GAGCGTT | 0.044 | -0.104 | -0.0146 | -0.138 | -0.0109 | 0.381 | -2.54 | -0.0319 | -0.00367
AACAACT | -0.0111 | -0.113 | -0.801 | -2.85 | -0.114 | -0.927 | -2.69 | -0.0106 | -0.0722
CGTAAAC | -0.0193 | -0.0196 | -0.0308 | -0.248 | 0.0572 | -0.597 | -0.0118 | 0.00193 | 0.0373
CCCGTCT | -0.109 | -0.16 | -0.159 | -1.76 | -0.218 | -0.65 | -0.348 | -0.106 | -0.409
TGATCAA | 0.142 | 0.188 | 0.735 | 1.27 | 0.0924 | 1.51 | 0.11 | 0.0921 | 0.215
GGCCATT | -0.0139 | 0.0466 | 0.87 | 1.77 | -0.00652 | 2.16 | 0.145 | 0.17 | 0.154
ACAGCGG | -0.0297 | -0.099 | -0.758 | -0.498 | 0.0313 | -0.917 | 0.169 | 0.0185 | -0.134
CGCCTGC | 0.0108 | -0.0327 | -0.199 | 0.328 | -0.147 | 0.563 | -0.111 | -0.11 | 0.095
AAGCTCG | 0.139 | 0.0493 | -0.227 | 0.0134 | 0.0145 | -0.24 | 0.222 | -0.075 | 0.14
AATAATT | -1.06 | -2.6 | -1.31 | -2.8 | -0.128 | -0.947 | -3.95 | -0.0206 | -0.264
GCAATGT | -0.14 | -0.0624 | -0.0237 | 0.076 | 0.0205 | -0.353 | 0.00631 | 0.0022 | -0.153
CTACCCC | -0.259 | -0.127 | -0.0326 | -1.68 | -0.129 | -0.336 | -1.14 | -0.0514 | -0.219
CCCCTAG | -0.157 | -0.128 | -0.792 | -0.695 | -0.0322 | -1.14 | 0.0163 | 0.000607 | -0.221
